Among the data in paper PMC13083723 (Patterns, 2026) are result_ITMP values, retold here.

Among all 5,400 compounds or so, about 190 (3.5%) showed an effect of 50% or more. This is one part of the list. Residues, ends and D or L forms follow the SMILES beside them. *: point of attachment. NHCH2CH2OH = OCCN*; For = O=C*

This assay deals with Vero-E6. Kind of assay: primary screen, phospholipidosis by LipidTOX staining; higher = more effect of the substance. The following applies: 10 µM. A digest of the protocol:
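Drug-induced phospholipidosis detected with HCS LipidTOX Red reagent in Vero-E6 cells. Compounds tested at 10 μM, with amiodarone (10 μM) as positive control and DMSO (0.1 v/v %) as vehicle.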
Turning to `CC1C[C@H]2[C@@H]3CCC4=CC(=O)C=C[C@]4(C)[C@@]3(Cl)[C@@H](O)C[C@]2(C)[C@@]1(O)C(=O)CO` (stereo partly drawn), the result_ITMP is reported as -1.12%.

Turning to `c1ccc(C(O[C@@H]2CCCN(CCc3ccc4c(c3)OCO4)C2)c2ccccc2)cc1`, the result_ITMP is on record as 3.22%.

Turning to `O=C(Oc1ccccc1)c1ccccc1O`, the result_ITMP is -5.49%.

Turning to `Nc1nc2cc(-c3ccc4ncc(C(=O)N5CCOCC5)n4c3)ccc2o1`, the result_ITMP is given as -0.2%.

For the molecule `COc1ncnc(NS(=O)(=O)c2ccc(N)cc2)c1OC`, the result_ITMP is -4.3%.

`C[C@]12CCC(=O)C=C1CC[C@@H]1[C@@H]2C(=O)C[C@]2(C)C(=O)CC[C@@H]12`: the result_ITMP is -0.84%.

Regarding `CC(=O)O.CC(=O)O.N.NC1CCCCC1.[Cl][Pt][Cl]`, the result_ITMP is -1.8%.

Consider `CCCCOC(=O)c1ccccc1Nc1cccc(C(F)(F)F)c1`, for which the result_ITMP is -2.32%.

For the molecule `Cc1ccccc1C(=O)c1ccc(Nc2ccc(Br)cc2N)cc1Cl`, the result_ITMP is -0.52%.

On to `CCn1c(-c2ccc(Cl)cc2)n[nH]c1=O`, for which the result_ITMP is -4.76%.

For `Cc1cc(C(=O)Nc2nc3cccc(Cl)c3n2[C@@H]2CCCCN(C(=O)/C=C/CN(C)C)C2)ccn1`, the result_ITMP is 37.9%.

As for `C[C@]12CC[C@H](O)CC1=CC[C@@H]1[C@@H]2CC[C@]2(C)C(c3cccnc3)=CC[C@@H]12`, the result_ITMP is given as -5.26%.

As for `CCOC(=O)C1=C(C)NC(C)=C(C(=O)OCC)C1c1ccccc1/C=C/C(=O)OC(C)(C)C`, the result_ITMP is 2.86%.

Take `CCc1ccc(Cc2ccc3c(c2)[C@]2(OC3)O[C@H](CO)[C@@H](O)[C@H](O)[C@H]2O)cc1`: the result_ITMP is reported as -1.43%.

With `Cn1c(=O)n(-c2ccc(C(C)(C)C#N)cc2)c2c3cc(-c4cnc5ccccc5c4)ccc3ncc21`, the result_ITMP is given as 1.31%.

For `CCOc1cc(CC(=O)N[C@@H](CC(C)C)c2ccccc2N2CCCCC2)ccc1C(=O)O`, the result_ITMP is reported as -8.44%.

Turning to `Cc1cc(C)c2nc(-c3ccccn3)cc(C(=O)Nc3ccc(S(=O)(=O)Nc4onc(C)c4C)cc3)c2c1`, the result_ITMP was -2.6%.

For the molecule `O=C(O)c1ccc(OCCn2ccnc2)cc1`, the result_ITMP is reported as -2.18%.

Consider `CCCCN(CCCC)CCC(O)c1cc2c(Cl)cc(Cl)cc2c2cc(C(F)(F)F)ccc12` (stereo not drawn), for which the result_ITMP stood at 68.8%.

As for `CN[C@@H]1[C@@H](O)[C@@H](O[C@@H]2[C@@H](O)[C@H](O[C@H]3O[C@H](CN)[C@@H](O)[C@H](O)[C@H]3O)[C@@H](N)C[C@H]2NC(=O)[C@@H](O)CN)OC[C@]1(C)O`, the result_ITMP is listed as -2.63%.

As to `COc1cc(F)c(F)c(Nc2ccc(I)cc2F)c1NS(=O)(=O)C1(C[C@H](O)CO)CC1`, the result_ITMP stood at 5.24%.

Regarding `COc1cccc([C@H](O)C2CCN(CCc3ccc(F)cc3)CC2)c1OC`, the result_ITMP was found to be 1.34%.

For the molecule `O=C(O)C(Cc1ccccc1)CN(O)C(=O)Cc1ccccc1` (stereo not drawn), the result_ITMP is recorded as 3.29%.

As to `C[C@H](NC[C@H](O)CP(=O)(O)CC1CCCCC1)c1ccc(Cl)c(Cl)c1`, the result_ITMP is listed as -3.93%.

With `COc1cc(S(C)(=O)=O)ccc1Nc1nc2ccc(-c3ccc(NC(=O)[C@H](C)c4ccc(F)cc4)cc3)cn2n1`, the result_ITMP was 0.09%.

Consider `O=S(=O)(c1ccccc1)N(CC(F)(F)F)c1ccc(C(O)(C(F)(F)F)C(F)(F)F)cc1`, for which the result_ITMP is -1.73%.

For `C[C@]12CC[C@H](O)CC1=CCC1C2CC[C@]2(C)C(n3cnc4ccccc43)=CCC12` (stereo partly drawn), the result_ITMP is -2.43%.

In the case of `Nc1c2c(nc3ccccc13)CCCC2`, the result_ITMP was found to be 5.94%.

With `O=c1sn(-c2cccc3ccccc23)c(=O)n1Cc1ccccc1`, the result_ITMP was -0.73%.

Regarding `Oc1cc(O)cc(O)c1`, the result_ITMP is -3.47%.

Consider `O=c1cc(-c2ccccc2)oc2cc(O)cc(O)c12`, for which the result_ITMP is -1.68%.

`CO[C@@H]1[C@H](OC(=O)NC(=O)CCl)CC[C@]2(CO2)[C@H]1[C@@]1(C)O[C@@H]1CC=C(C)C`: the result_ITMP amounted to 16.1%.

With `COc1ccc2c(c1)c(C1=C(c3c[nH]c4ccccc34)C(=O)NC1=O)cn2CCCN(C)C`, the result_ITMP was 120%.

As to `Cc1cc(OCCCS(C)(=O)=O)cc(C)c1-c1cccc(COc2ccc3c(c2)OC[C@H]3CC(=O)O)c1`, the result_ITMP is on record as -1.57%.

In the case of `O=C1C(=Cc2cccnc2)C(=O)c2ccccc21`, the result_ITMP was -2.75%.

For the molecule `CCN(CC)C(=S)SSC(=S)N(CC)CC`, the result_ITMP is listed as -1.1%.

With `C[C@H](CCC(=O)[O-])[C@H]1CCC2C3C(=O)CC4CC(=O)CC[C@]4(C)C3CC(=O)[C@@]21C` (stereo partly drawn), the result_ITMP is given as 4.65%.

For the molecule `O=C(CCCCCN1C(=O)c2cccc3cccc(c23)C1=O)NO`, the result_ITMP is on record as -2.63%.

On to `Cc1cccc(-c2n[nH]cc2-c2ccc(F)c(-c3cnn(CCO)c3)c2)n1`, for which the result_ITMP was -7.98%.

With `COc1ccc(CN2CCNCC2)c(OC)c1OC`, the result_ITMP is on record as -3.48%.

Turning to `CC(C)(C)C(=O)OCC(=O)[C@H]1CC[C@H]2[C@@H]3CCC4=CC(=O)CC[C@]4(C)[C@H]3CC[C@]12C`, the result_ITMP is recorded as -0.94%.

Turning to `CC(C)=CCC/C(C)=C/CC/C(C)=C/CCC(O)OC/C=C(\C)CCC=C(C)C` (stereo not drawn), the result_ITMP was -2.12%.

Turning to `C/C(=C(\CCOP(=O)(O)O)SC(=O)c1ccccc1)N(C=O)Cc1cnc(C)nc1N`, the result_ITMP is reported as -10.3%.

On to `Cn1cc(C[C@@H](N)C(=O)O)c2ccccc21`, for which the result_ITMP is listed as 5.95%.

Consider `C[C@H](N)C(=O)N[C@@]1(C(=O)O)C[C@@H](Sc2nnc[nH]2)[C@H]2[C@H](C(=O)O)[C@H]21`, for which the result_ITMP is given as -1.74%.

Take `O=C1CC(=O)c2c(Cl)c(Cl)c(Cl)c(Cl)c21`: the result_ITMP is reported as -8.99%.

In the case of `CC1(C)O[C@@H]2C[C@H]3[C@@H]4CCC5=CC(=O)C=C[C@]5(C)[C@H]4[C@@H](O)C[C@]3(C)[C@]2(C(=O)CO)O1`, the result_ITMP turned out to be 5.48%.

As to `O=C(O)c1ccc2c(c1)nc(Nc1cccc(Cl)c1)c1ccncc12`, the result_ITMP is on record as -4.43%.

In the case of `C/C=C/C[C@@H](C)C(=O)[C@H]1C(=O)N[C@@H](C(C)C)C(=O)N(C)CC(=O)N(C)[C@@H](CC(C)C)C(=O)N[C@@H](C(C)C)C(=O)N(C)[C@@H](CC(C)C)C(=O)N[C@@H](C)C(=O)N[C@H](C)C(=O)N(C)[C@@H](CC(C)C)C(=O)N(C)[C@@H](CC(C)C)C(=O)N(C)[C@@H](C(C)C)C(=O)N1C`, the result_ITMP is -4.53%.

`CCN(CC)CCOc1ccc2c(c1)C(=O)c1cc(OCCN(CC)CC)ccc1-2`: the result_ITMP was 57.2%.

`CCCCCCCCCCCC(N=O)c1cc(C)ccc1O` (stereo not drawn): the result_ITMP was 1.92%.

Take `NCCCCCNCC12CC3CC(CC(C3)C1)C2`: the result_ITMP came out at 16.8%.

In the case of `COC(=O)C1=C(C)NC(C)=C([N+](=O)[O-])C1c1ccccc1C(F)(F)F` (racemic), the result_ITMP was 2.07%.

For `c1cnc2cc3c(cc2n1)C1CNCC3C1`, the result_ITMP is recorded as -2.31%.

Consider `O=C(/C=C/c1ccc(O)c(O)c1)c1ccc(O)cc1O`, for which the result_ITMP is given as -4.21%.

On to `CC[C@H]1OC(=O)C[C@@H](O)[C@H](C)[C@@H](O[C@@H]2O[C@H](C)[C@@H](O[C@H]3C[C@@](C)(O)[C@@H](O)[C@H](C)O3)[C@H](N(C)C)[C@H]2O)[C@@H](CC=O)C[C@@H](C)C(=O)/C=C/C(C)=C/[C@@H]1CO[C@@H]1O[C@H](C)[C@@H](O)[C@@H](OC)[C@H]1OC`, for which the result_ITMP stood at 15.5%.

Consider `C[C@H](Oc1ccc(S(C)(=O)=O)cc1C(=O)N1CCN(c2ncc(C(F)(F)F)cc2F)CC1)C(F)(F)F`, for which the result_ITMP is reported as 0.3%.

Regarding `CCc1ccc2c(-c3cccc(Cl)c3)nc(=O)n(CC)c2n1`, the result_ITMP is reported as -12%.

Take `O=C(CCCCCCC(=O)Nc1ccccc1)NO`: the result_ITMP is given as -5.13%.

Take `CCNC(=O)CCC/C=C\C[C@@H]1[C@@H](/C=C/[C@@H](O)CCc2ccccc2)[C@H](O)C[C@@H]1O`: the result_ITMP is given as -4.18%.

For `CCCCNc1nc(N)c2[nH]c(=O)n(Cc3ccc(OCCN(C)C)nc3)c2n1`, the result_ITMP is 1.08%.

As for `CCCCOc1ccc(CC/C=C2\SC(=O)N(CCN)C2=O)cc1`, the result_ITMP was determined as 10%.

On to `Cc1ccc(S(=O)(=O)Nc2ccc3c(c2)c(C(=O)C(F)(F)F)cn3CC(=O)N[C@@H](CC(C)C)C(=O)O)cc1`, for which the result_ITMP is on record as -8.25%.

On to `Cc1ccc(NC(=O)c2cccc(N(C)C)c2)cc1NC(=O)c1ccc(O)cc1`, for which the result_ITMP was -6.05%.

For `O=C1NCCc2[nH]c(-c3ccncc3)cc21`, the result_ITMP amounted to 0.77%.

For `C[C@]12C[C@H](O)[C@H]3[C@@H](CCC4=CC(=O)CC[C@@]43C)[C@@H]1CC[C@@H]2C(=O)CO`, the result_ITMP is reported as -2.04%.

On to `Cc1ccc2cc(-c3c(C)ccc(C(=O)c4c(-c5ccccc5)n(C)n(-c5ccccc5)c4=O)c3N)ccc2n1`, for which the result_ITMP was -1.64%.

Consider `COc1ccc(S(=O)(=O)Nc2cccnc2Nc2ccc(O)cc2)cc1`, for which the result_ITMP stood at 20.1%.

In the case of `O=C(Nc1cc2cc[nH]c2cn1)c1ccccc1`, the result_ITMP is 4.15%.

With `CNc1nc(C)nc(N[C@H]2CCC[C@@H](C(=O)NCc3ccc(C#N)cc3C(F)(F)F)C2)n1`, the result_ITMP is -2.22%.

In the case of `C#C[C@]1(O)CC[C@H]2[C@@H]3CCC4=CC(=O)CC[C@@H]4C3CC[C@@]21CC` (stereo partly drawn), the result_ITMP was -2.07%.

For the molecule `CN1Cc2ccccc2[C@@H]2c3cccc4[nH]cc(c34)C[C@H]21`, the result_ITMP turned out to be 2.12%.

On to `CC(C)CC(NC(=O)C(C)NC(=O)CNC(=O)C(NC=O)C(C)C)C(=O)NC(C)C(=O)NC(C(=O)NC(C(=O)NC(C(=O)NC(Cc1c[nH]c2ccccc12)C(=O)NC(CC(C)C)C(=O)NC(Cc1c[nH]c2ccccc12)C(=O)NC(CC(C)C)C(=O)NC(Cc1c[nH]c2ccccc12)C(=O)NC(CC(C)C)C(=O)NC(Cc1c[nH]c2ccccc12)C(=O)NCCO)C(C)C)C(C)C)C(C)C` (stereo not drawn) (For-VGALAVVVWLWLWLW-NHCH2CH2OH; configuration not given here), for which the result_ITMP is on record as -8.15%.

In the case of `N#Cc1c(N)nc(SCc2ncc[nH]2)c(C#N)c1-c1ccc(O)cc1`, the result_ITMP was determined as 1.67%.

Turning to `CN[C@H]1C(=O)N[C@@H]2Cc3ccc(cc3)Oc3cc4cc(c3O[C@@H]3O[C@H](C(=O)O)[C@@H](O)[C@H](O)[C@H]3NC(=O)CCCCCCCCC(C)C)Oc3ccc(cc3Cl)[C@@H](O)[C@@H]3NC(=O)[C@H](NC(=O)[C@@H]4NC(=O)[C@@H](NC2=O)c2cc(cc(O)c2Cl)Oc2cc1ccc2O)c1ccc(O)c(c1)-c1c(O[C@H]2O[C@H](CO)[C@@H](O)[C@H](O)[C@@H]2O)cc(O)cc1[C@@H](C(=O)NCCCN(C)C)NC3=O`, the result_ITMP stood at 0.77%.
